# This is one part of the list.
# B1: BC2L-D C-terminal domain (Burkholderia cenocepacia), Q39MQ9_BURS3 (protein)
# chain: LVIVDAVTLLSAYPEASRDPAAPTVIDGRHLYVVSPGDAAQLGHNDSRLFTGLSPGDQLHLRETALALRAEVSVLFIRFALKDAGIVAPIELEVRDAATAVPDADDLLHPSCRPLKDHYWRSDVLAAGATTCTADFAVCDRDGTVSGYFRWETSIEIAGSQPDTKQPGFKPSSDRNGNFSLPPNTAFKAIFYANAADRQDLKLFIDDAPEPAATFVGNSEDGVRLFTLNSKGGKIRIEASANGRQSATDARLAPLSAGDTVWLGWLGAEDGADADYNDGIVILQWPIT
# Assays:
# Assay in all cases: glycan array binding signal (z-score within array); higher = stronger binding
# Conditions in all cases: glycan notation: IUPAC condensed, linker removed
# [1] = molecular target: Neu5Ac(a2-3)Gal(b1-4)[Fuc(a1-3)]GlcNAc(b1-6)[Neu5Ac(a2-3)Gal(b1-3)]GalNAc
# Procedure, shortened: (§1)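 The binding signal is a Z-score computed within each array and averaged over linkers. Arrays of the same protein sequence at different concentrations or buffers were also averaged together. Data originate from 3228 arrays in the Consortium for Functional Glycomics database, kept only where the protein sequence was available.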
# [2] = molecular target: Neu5Ac(a2-3)Gal(b1-4)[Fuc(a1-3)]GlcNAc6S
# Procedure, shortened: as §1
# [3] = molecular target: Neu5Ac(a2-3)Gal6S(b1-4)GlcNAc
# Procedure, shortened: as §1
# [4] = molecular target: Neu5Ac(a2-3)Gal6S(b1-4)[Fuc(a1-3)]GlcNAc
# Procedure, shortened: as §1
# Neu5Ac(a2-3)GalNAc = molecular target: Neu5Ac(a2-3)GalNAc
# Procedure, shortened: as §1
# [5] = molecular target: Neu5Ac(a2-3)GalNAc(b1-4)GlcNAc
# Procedure, shortened: as §1
# [6] = molecular target: Neu5Ac(a2-3)[GalNAc(b1-4)]Gal(b1-4)Glc
# Procedure, shortened: as §1
# [7] = molecular target: Neu5Ac(a2-3)[GalNAc(b1-4)]Gal(b1-4)GlcNAc
# Procedure, shortened: as §1
# [8] = molecular target: Neu5Ac(a2-3)[GalNAc(b1-4)]Gal(b1-4)GlcNAc(b1-3)GalNAc
# Procedure, shortened: as §1
# [9] = molecular target: Neu5Ac(a2-3)[Neu5Ac(a2-6)]GalNAc
# Procedure, shortened: as §1
# Neu5Ac(a2-6)Gal = molecular target: Neu5Ac(a2-6)Gal
# Procedure, shortened: as §1
# [10] = molecular target: Neu5Ac(a2-6)Gal(b1-3)GlcNAc(b1-3)[Gal(b1-4)GlcNAc(b1-6)]Gal(b1-4)Glc
# Procedure, shortened: as §1
# Neu5Ac(a2-6)Gal(b1-4)Glc = molecular target: Neu5Ac(a2-6)Gal(b1-4)Glc
# Procedure, shortened: as §1
# [11] = molecular target: Neu5Ac(a2-6)Gal(b1-4)GlcNAc
# Procedure, shortened: as §1
# [12] = molecular target: Neu5Ac(a2-6)Gal(b1-4)GlcNAc(b1-2)Man(a1-3)Man(b1-4)GlcNAc(b1-4)GlcNAc
# Procedure, shortened: as §1
# [13] = molecular target: Neu5Ac(a2-6)Gal(b1-4)GlcNAc(b1-2)Man(a1-3)[Gal(b1-4)GlcNAc(b1-2)Man(a1-6)]Man(b1-4)GlcNAc(b1-4)GlcNAc
# Procedure, shortened: as §1
# [14] = molecular target: Neu5Ac(a2-6)Gal(b1-4)GlcNAc(b1-2)Man(a1-3)[GlcNAc(b1-2)Man(a1-6)]Man(b1-4)GlcNAc(b1-4)GlcNAc
# Procedure, shortened: as §1
# [15] = molecular target: Neu5Ac(a2-6)Gal(b1-4)GlcNAc(b1-2)Man(a1-3)[GlcNAc(b1-2)Man(b1-4)GlcNAc(b1-2)Man(a1-6)]Man(b1-4)GlcNAc(b1-4)GlcNAc
# Procedure, shortened: as §1
# [16] = molecular target: Neu5Ac(a2-6)Gal(b1-4)GlcNAc(b1-2)Man(a1-3)[Man(a1-6)]Man(b1-4)GlcNAc(b1-4)GlcNAc
# Procedure, shortened: as §1
# [17] = molecular target: Neu5Ac(a2-6)Gal(b1-4)GlcNAc(b1-2)Man(a1-3)[Neu5Ac(a2-6)Gal(b1-4)GlcNAc(b1-2)Man(a1-6)]Man(b1-4)GlcNAc(b1-4)GlcNAc
# Procedure, shortened: as §1
# [18] = molecular target: Neu5Ac(a2-6)Gal(b1-4)GlcNAc(b1-2)Man(a1-6)Man(b1-4)GlcNAc(b1-4)GlcNAc
# Procedure, shortened: as §1
# [19] = molecular target: Neu5Ac(a2-6)Gal(b1-4)GlcNAc(b1-2)Man(a1-6)[Gal(b1-4)GlcNAc(b1-2)Man(a1-3)]Man(b1-4)GlcNAc(b1-4)GlcNAc
# Procedure, shortened: as §1
# [20] = molecular target: Neu5Ac(a2-6)Gal(b1-4)GlcNAc(b1-2)Man(a1-6)[GlcNAc(b1-2)Man(a1-3)]Man(b1-4)GlcNAc(b1-4)GlcNAc
# Procedure, shortened: as §1
# [21] = molecular target: Neu5Ac(a2-6)Gal(b1-4)GlcNAc(b1-2)Man(a1-6)[Man(a1-3)]Man(b1-4)GlcNAc(b1-4)GlcNAc
# Procedure, shortened: as §1
# [22] = molecular target: Neu5Ac(a2-6)Gal(b1-4)GlcNAc(b1-3)Gal(b1-3)GlcNAc
# Procedure, shortened: as §1
# [23] = molecular target: Neu5Ac(a2-6)Gal(b1-4)GlcNAc(b1-3)Gal(b1-4)GlcNAc
# Procedure, shortened: as §1
# [24] = molecular target: Neu5Ac(a2-6)Gal(b1-4)GlcNAc(b1-3)Gal(b1-4)GlcNAc(b1-3)Gal(b1-4)GlcNAc
# Procedure, shortened: as §1
# [25] = molecular target: Neu5Ac(a2-6)Gal(b1-4)GlcNAc(b1-3)Gal(b1-4)[Fuc(a1-3)]GlcNAc(b1-3)Gal(b1-4)[Fuc(a1-3)]GlcNAc
# Procedure, shortened: as §1
# [26] = molecular target: Neu5Ac(a2-6)Gal(b1-4)GlcNAc(b1-3)GalNAc
# Procedure, shortened: as §1
# [27] = molecular target: Neu5Ac(a2-6)Gal(b1-4)GlcNAc6S
# Procedure, shortened: as §1
# Neu5Ac(a2-6)GalNAc = molecular target: Neu5Ac(a2-6)GalNAc
# Procedure, shortened: as §1
# [28] = molecular target: Neu5Ac(a2-6)GalNAc(b1-4)GlcNAc
# Procedure, shortened: as §1
# [29] = molecular target: Neu5Ac(a2-6)GlcNAc(b1-4)GlcNAc
# Procedure, shortened: as §1
# [30] = molecular target: Neu5Ac(a2-6)GlcNAc(b1-4)GlcNAc(b1-4)GlcNAc
# Procedure, shortened: as §1
# Neu5Ac(a2-8)Neu5Ac = molecular target: Neu5Ac(a2-8)Neu5Ac
# Procedure, shortened: as §1
# [31] = molecular target: Neu5Ac(a2-8)Neu5Ac(a2-3)Gal(b1-3)GalNAc(b1-4)[Neu5Ac(a2-8)Neu5Ac(a2-3)]Gal(b1-4)Glc
# Procedure, shortened: as §1
# [32] = molecular target: Neu5Ac(a2-8)Neu5Ac(a2-3)Gal(b1-4)Glc
# Procedure, shortened: as §1
# [33] = molecular target: Neu5Ac(a2-8)Neu5Ac(a2-3)[Gal(b1-3)GalNAc(b1-4)]Gal(b1-4)Glc
# Procedure, shortened: as §1
binder,measurement,setting,value
B1,glycan array binding signal (z-score),[1],-0.251
same,glycan array binding signal (z-score),[2],-0.244
same,glycan array binding signal (z-score),[3],-0.241
same,glycan array binding signal (z-score),[4],-0.242
same,glycan array binding signal (z-score),Neu5Ac(a2-3)GalNAc,-0.243
same,glycan array binding signal (z-score),[5],-0.246
same,glycan array binding signal (z-score),[6],-0.243
same,glycan array binding signal (z-score),[7],-0.233
same,glycan array binding signal (z-score),[8],-0.171
same,glycan array binding signal (z-score),[9],-0.24
same,glycan array binding signal (z-score),Neu5Ac(a2-6)Gal,-0.246
same,glycan array binding signal (z-score),[10],-0.167
same,glycan array binding signal (z-score),Neu5Ac(a2-6)Gal(b1-4)Glc,-0.242
same,glycan array binding signal (z-score),[11],-0.248
same,glycan array binding signal (z-score),[12],-0.244
same,glycan array binding signal (z-score),[13],-0.241
same,glycan array binding signal (z-score),[14],-0.218
same,glycan array binding signal (z-score),[15],-0.25
same,glycan array binding signal (z-score),[16],0.456
same,glycan array binding signal (z-score),[17],-0.24
same,glycan array binding signal (z-score),[18],-0.241
same,glycan array binding signal (z-score),[19],-0.257
same,glycan array binding signal (z-score),[20],-0.235
same,glycan array binding signal (z-score),[21],1.83
same,glycan array binding signal (z-score),[22],-0.238
same,glycan array binding signal (z-score),[23],-0.233
same,glycan array binding signal (z-score),[24],-0.246
same,glycan array binding signal (z-score),[25],0.003
same,glycan array binding signal (z-score),[26],-0.216
same,glycan array binding signal (z-score),[27],-0.239
same,glycan array binding signal (z-score),Neu5Ac(a2-6)GalNAc,-0.242
same,glycan array binding signal (z-score),[28],-0.243
same,glycan array binding signal (z-score),[29],-0.247
same,glycan array binding signal (z-score),[30],-0.242
same,glycan array binding signal (z-score),Neu5Ac(a2-8)Neu5Ac,-0.242
same,glycan array binding signal (z-score),[31],-0.16
same,glycan array binding signal (z-score),[32],-0.248
same,glycan array binding signal (z-score),[33],-0.162

# — the supplement of paper PMC8728848
